Data on 79 sequences can be found in the supplement of paper PMC10126150.

Values marked as one replicate rest on one cluster of the flow cell; about a third of the high ones do not repeat.

The test system of this data set is ATP. Nature of the data set: switch fluorescence ratio, 500 uM ATP over buffer (Cy3 cluster intensity, sum of 5 cycles each) (fold (ratio)); higher = stronger signal-on switching upon ATP binding; sequences stand for … in TCGTCGGCAGCGTCAGATGTGTATAAGAGACAGTTTTTTTTTTTTTTTTTTTTTTTTT…TC. The following applies: aptamer strand: ATP DNA aptamer (quencher-CACCTGGGGGAGTATTGCGGAGGAAGG + anchor), 100 nM annealed; ATP concentration: 500 uM; one replicate. In outline: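 Switching-strand clusters labelled with Cy3 on a modified Illumina MiSeq flow-cell were annealed to 100 nM quencher-labelled ATP aptamer, imaged in selection buffer, and re-imaged after 15 min with 500 uM ATP at 22 °C. This was done over five cycles with NaOH stripping and re-annealing in between. The fluorescence ratio is summed target-cycle over summed buffer-cycle Cy3 intensity per cluster, averaged per switch-domain sequence, excluding clusters outside 100-1000 RFU.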
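Note: ATP exposure 15 min at 22 °C before imaging.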

CGAGTTACAT: the switch fluorescence ratio was 1.06. Turning to CTTCTTTGCC, the switch fluorescence ratio was 1. On to AGTTCGAGCG, for which the switch fluorescence ratio stood at 0.978. The result for AGTGACGCTT reads 1.05; that for AAGCGAATTC, 1.14. GGGTCAGTA: the switch fluorescence ratio worked out at 1.05. In the case of AACCGCGTTT, the switch fluorescence ratio is 1.02.

With AACCTGTGCT, the switch fluorescence ratio was 1.09.

CAGGGGAAGT: the switch fluorescence ratio came to 1. Regarding AAACGATTTT, the switch fluorescence ratio was found to be 1.02.

In the case of CCCATAATAG, the switch fluorescence ratio amounted to 1.21. Turning to AGGGTCGAGC, the switch fluorescence ratio came to 0.989.

In the case of GGATGTCTTA, the switch fluorescence ratio worked out at 0.977. For the sequence TCGCGTTCTT, the switch fluorescence ratio is 0.993. As for GGTTAATAG, the switch fluorescence ratio stood at 0.988.

Consider GTTTGGGAT, for which the switch fluorescence ratio stood at 1.02. For GTTCATCGAG, the switch fluorescence ratio turned out to be 1.04. The result for CCTGGAGGAA reads 1.11.

TTATTAGTAC: the switch fluorescence ratio worked out at 1.04. Turning to AATATGCTGG, the switch fluorescence ratio turned out to be 0.998.

Consider GATGAAGTG, for which the switch fluorescence ratio is 0.969.

Take GGTGCCTG: the switch fluorescence ratio worked out at 1. As to AGTACGAGCG, the switch fluorescence ratio was 0.996. In the case of TGGAGGCGCT, the switch fluorescence ratio worked out at 0.976. In the case of CCACCTGCTC, the switch fluorescence ratio is 1.97. Next, CGAAATTATC: 1.05; TCATAACC: 1.01.

For the sequence GATTCTAACC, the switch fluorescence ratio was 1.02. Turning to AGTGCCGGTA, the switch fluorescence ratio was 0.955. With ATACTCGCAT, the switch fluorescence ratio came out at 1.29. The result for GAGCACAAAA reads 1.08; that for ACTTGCTACG, 1.27; that for GAAGGCTAGT, 1.02.

Turning to GGGATTCTAG, the switch fluorescence ratio is 0.958.

For the sequence GACGTAGGGG, the switch fluorescence ratio worked out at 0.999. With ATGCACGCGA, the switch fluorescence ratio came out at 1.28. For the sequence AGTTAGTTG, the switch fluorescence ratio came to 0.983. GGTTACAGGT: the switch fluorescence ratio is 1.02. On to CCTTTGTGCT, for which the switch fluorescence ratio was found to be 1.02. Next, CGGAGTATCT: 1.07; ACCTCGCTAA: 1.78. Turning to CACATCTAAT, the switch fluorescence ratio is 1.03. As for CGTTAAGAAT, the switch fluorescence ratio was determined as 1.03. Next, TCCATCAGAA: 1.01; CACATTCAGT: 0.936; CGGGCAATTG: 1.22.

With TGACTAGTTG, the switch fluorescence ratio was 0.997. Regarding AAGGTGCGCG, the switch fluorescence ratio stood at 1.05. As for TCATGTGCC, the switch fluorescence ratio was found to be 1.01. With TAATAATAT, the switch fluorescence ratio stood at 0.975. GAATTTGGGC: the switch fluorescence ratio came to 1.01. The result for GCCTGGGAAT reads 1.02; that for AATGCCGCGC, 1.07. For TGCAAAGGAT, the switch fluorescence ratio stood at 1.01. With TCGTGCTTCG, the switch fluorescence ratio was found to be 1.04.

For TAGTTGGCG, the switch fluorescence ratio is 0.989. Turning to AGGTACGCAC, the switch fluorescence ratio came to 1.72.

On to AAGGCTATGC, for which the switch fluorescence ratio stood at 1.1. For CCAGGTTAGG, the switch fluorescence ratio is 1.06. Next, CGACTTGTGC: 0.984; TTCTGATGTC: 0.936. On to AGAGTGAAAG, for which the switch fluorescence ratio came to 0.974.

In the case of TTAGGGGAAC, the switch fluorescence ratio is 0.973.

As to TGGTCCGGCA, the switch fluorescence ratio is 0.991.

For GAAGTAAG, the switch fluorescence ratio worked out at 0.971.

Regarding CATCAGTCAG, the switch fluorescence ratio was 1.1. As to TGGAAGACCC, the switch fluorescence ratio worked out at 1.02. Regarding TACCTTGTGG, the switch fluorescence ratio was 1.07. For ATTGCTAC, the switch fluorescence ratio worked out at 1.08.

Regarding CGCGAGGCGG, the switch fluorescence ratio was determined as 1.03. The result for GGGTATGCTA reads 1. Turning to GCCTGCGCGC, the switch fluorescence ratio worked out at 1.18.

As to TGCCTTTAAT, the switch fluorescence ratio stood at 1.03. Next, AGTTCTAGCT: 0.974; GGTTGTGTGC: 1.08.

With GTGTATCAAC, the switch fluorescence ratio was determined as 0.951. With ACGAGGAGGG, the switch fluorescence ratio worked out at 1.01. Next, TTATTTCATA: 1.04; TAACTAGCTG: 1.04.
